Values marked as one replicate rest on one cluster of the flow cell; about a third of the high ones do not repeat.
What follows are sequences tested on ATP (assay: switch fluorescence ratio, 500 uM ATP over buffer (Cy3 cluster intensity, sum of 5 cycles each) (fold (ratio)); higher = stronger signal-on switching upon ATP binding; sequences stand for … in TCGTCGGCAGCGTCAGATGTGTATAAGAGACAGTTTTTTTTTTTTTTTTTTTTTTTTT…TC). Conditions: aptamer strand: ATP DNA aptamer (quencher-CACCTGGGGGAGTATTGCGGAGGAAGG + anchor), 100 nM annealed; ATP concentration: 500 uM; one replicate.
In short: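 The fluorescence ratio divides summed target-cycle Cy3 intensity by summed buffer-cycle Cy3 intensity for each cluster and is averaged per switch-domain sequence. Cy3-labelled switching-strand clusters on a modified Illumina MiSeq flow-cell were annealed to 100 nM quencher-labelled ATP aptamer, then imaged in selection buffer and again after 15 min with 500 uM ATP at 22 °C. Five such cycles were run, with NaOH stripping and re-annealing between them, and clusters outside 100-1000 RFU were excluded.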
For TCATATCGGA, the switch fluorescence ratio was 0.976.
TCATATGCAC showed a switch fluorescence ratio of 1.62.
Work on TCATATGCCC yielded a switch fluorescence ratio of 1.
For TCATATTCTG, the switch fluorescence ratio was 0.97.
In the case of TCATCACGTT, the switch fluorescence ratio is reported as 1.01.
In the case of TCATCATGAG, the switch fluorescence ratio is reported as 1.03.
Work on TCATCATTAC yielded a switch fluorescence ratio of 1.26.
With TCATCCCGCT the switch fluorescence ratio was 1.73.
TCATCCCTTG gave a switch fluorescence ratio of 1.03.
With TCATCCTATT the switch fluorescence ratio was 0.997.
Sequence TCATCGCCCT has a switch fluorescence ratio of 1.08.
Sequence TCATGAGAAA has a switch fluorescence ratio of 1.03.
Sequence TCATGAGGAT has a switch fluorescence ratio of 1.01.
Work on TCATGAGGTC yielded a switch fluorescence ratio of 1.04.
In the case of TCATGCTTAG, the switch fluorescence ratio is reported as 0.989.
Sequence TCATGGGTAC has a switch fluorescence ratio of 1.03.
TCATGGTATC showed a switch fluorescence ratio of 0.978.
In the case of TCATGTCACT, the switch fluorescence ratio is reported as 1.05.
TCATGTGGGC showed a switch fluorescence ratio of 1.05.
TCATTAATGA gave a switch fluorescence ratio of 1.01.
In the case of TCATTAGTTT, the switch fluorescence ratio is reported as 1.02.
TCATTCGAC showed a switch fluorescence ratio of 1.02.
With TCATTGATGT the switch fluorescence ratio was 1.
TCATTGCACA showed a switch fluorescence ratio of 1.37.
TCATTGCCAG showed a switch fluorescence ratio of 1.02.
TCATTTTAAG gave a switch fluorescence ratio of 0.956.
Work on TCATTTTAAT yielded a switch fluorescence ratio of 1.18.
TCCAAAGGCT was tested, and the switch fluorescence ratio was 0.969.
Sequence TCCAAATAAC has a switch fluorescence ratio of 1.22.
For TCCAAATGAC, the switch fluorescence ratio was 1.17.
With TCCAACATGA the switch fluorescence ratio was 1.
Work on TCCAACTCCT yielded a switch fluorescence ratio of 1.07.
TCCAAGCCTG gave a switch fluorescence ratio of 1.05.
TCCAAGCGGG gave a switch fluorescence ratio of 0.991.
In the case of TCCAAGGACC, the switch fluorescence ratio is reported as 1.03.
Work on TCCAAGGGCG yielded a switch fluorescence ratio of 1.01.
In the case of TCCAAGTACA, the switch fluorescence ratio is reported as 1.33.
In the case of TCCACGTTGA, the switch fluorescence ratio is reported as 1.06.
For TCCACTGGGC, the switch fluorescence ratio was 1.07.
TCCAGAGGTT gave a switch fluorescence ratio of 0.999.
In the case of TCCAGCCAGA, the switch fluorescence ratio is reported as 1.02.
For TCCAGCTTAT, the switch fluorescence ratio was 1.05.
In the case of TCCAGTTGGG, the switch fluorescence ratio is reported as 0.989.
TCCATAGGTT was tested, and the switch fluorescence ratio was 1.01.
In the case of TCCATAGTA, the switch fluorescence ratio is reported as 1.04.
TCCATGGGTT gave a switch fluorescence ratio of 0.994.
TCCATGGTTG showed a switch fluorescence ratio of 1.02.
For TCCATTATAA, the switch fluorescence ratio was 0.999.
TCCATTATAG showed a switch fluorescence ratio of 0.992.
TCCATTTGAC showed a switch fluorescence ratio of 1.05.
TCCCACGTCC was tested, and the switch fluorescence ratio was 1.15.
With TCCCACTCAC the switch fluorescence ratio was 1.28.
For TCCCACTTAG, the switch fluorescence ratio was 1.
TCCCCAGCTG gave a switch fluorescence ratio of 4.
Sequence TCCCCAGGCT has a switch fluorescence ratio of 2.09.
Sequence TCCCCGGCTA has a switch fluorescence ratio of 2.05.
TCCCCTGAGT gave a switch fluorescence ratio of 1.12.
For TCCCCTGTGG, the switch fluorescence ratio was 0.992.
TCCCGACGAT was tested, and the switch fluorescence ratio was 1.47.
In the case of TCCCGGATGA, the switch fluorescence ratio is reported as 1.02.
Work on TCCCGGGAGG yielded a switch fluorescence ratio of 1.01.
Sequence TCCCTATCTA has a switch fluorescence ratio of 0.984.
For TCCCTGACGG, the switch fluorescence ratio was 1.03.
Work on TCCCTGTCG yielded a switch fluorescence ratio of 1.01.
TCCGAAGGCA showed a switch fluorescence ratio of 2.01.
TCCGAAGGGC gave a switch fluorescence ratio of 1.3.
TCCGACAGAG showed a switch fluorescence ratio of 1.09.
For TCCGACAGC, the switch fluorescence ratio was 1.66.
TCCGAGAATT showed a switch fluorescence ratio of 1.69.
TCCGATATTT gave a switch fluorescence ratio of 1.08.
For TCCGATTAGC, the switch fluorescence ratio was 1.49.
For TCCGCACCTG, the switch fluorescence ratio was 1.24.
TCCGCCTTCA was tested, and the switch fluorescence ratio was 1.3.
Work on TCCGCTTTTG yielded a switch fluorescence ratio of 1.12.
TCCGGCAG showed a switch fluorescence ratio of 3.06.
Sequence TCCGGCATTT has a switch fluorescence ratio of 1.14.
With TCCGGCGCGC the switch fluorescence ratio was 1.43.
TCCGGCTAAG gave a switch fluorescence ratio of 1.02.
In the case of TCCGGGAAGT, the switch fluorescence ratio is reported as 1.06.
TCCGGGCTTT showed a switch fluorescence ratio of 1.05.
TCCGGGGATT was tested, and the switch fluorescence ratio was 1.04.
With TCCGGTATTG the switch fluorescence ratio was 1.01.
TCCGGTGTAA showed a switch fluorescence ratio of 1.75.
In the case of TCCGGTTCTC, the switch fluorescence ratio is reported as 1.13.
TCCGTCATCT showed a switch fluorescence ratio of 1.07.

From the supplement of paper PMC10126150
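Note: ATP exposure 15 min at 22 °C before imaging.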
